This note sets out measurements from patent publication US20240400703A1 (Genmab, published 2024).

Broadly, the EC50 (read off the curve) is the concentration giving half of the maximal effect. Lower therefore signals a more potent agent.

For assay [1], the target named is T1, mouse OX40 expressed on ExpiCHO-S cells (mouse, UniProt P47741 20-272).
T1 construct: full-length entry; also called OX40mm; wild-type mouse OX40
T1 sequence: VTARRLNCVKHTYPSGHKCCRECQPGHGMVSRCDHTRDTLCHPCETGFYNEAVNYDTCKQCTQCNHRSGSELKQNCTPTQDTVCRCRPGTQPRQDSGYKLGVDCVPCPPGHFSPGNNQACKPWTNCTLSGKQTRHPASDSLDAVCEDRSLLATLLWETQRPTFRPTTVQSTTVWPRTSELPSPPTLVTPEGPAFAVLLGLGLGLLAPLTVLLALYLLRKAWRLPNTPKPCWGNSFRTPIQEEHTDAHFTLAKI
In words: flow cytometry, transfected ExpiCHO-S cells, gMFI (PE). (In general: Flow cytometry measures light scatter and fluorescence of single cells or particles in a stream.)

The target of assay [2] is T2, human OX40 with mouse CRD4 (human with mouse CRD4, UniProt P43489 29-277).
T2 construct: on ExpiCHO-S cells; also called OX40-CRD4mm; Shuffle 4
T2 chain: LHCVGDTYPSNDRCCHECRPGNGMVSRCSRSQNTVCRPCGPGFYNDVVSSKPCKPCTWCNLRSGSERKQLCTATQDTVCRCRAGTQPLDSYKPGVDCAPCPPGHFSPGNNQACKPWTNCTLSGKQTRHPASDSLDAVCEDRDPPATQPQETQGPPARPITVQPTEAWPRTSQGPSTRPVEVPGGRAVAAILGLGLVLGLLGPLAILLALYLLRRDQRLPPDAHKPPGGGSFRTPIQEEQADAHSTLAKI
Described as above. The procedure: The four shuffle constructs, as well as wild-type human and mouse OX40 were transiently expressed on ExpiCHO-S cells using the ExpiFectamine™ CHO Transfection Kit (ThermoFisher, cat. no. A29131), according to the manufacturer's protocol. […] Next, cells were washed twice in FACS buffer 1, were resuspended in a 30 μL solution of viability marker ToPro-3 (Invitrogen, cat. no. T3605, diluted 1:10,000) in FACS buffer 1 supplemented with 2 mM EDTA, and were analyzed on an iQue Screener Plus (Intellicyt Corporation, USA). Data were analyzed using FlowJo software and visualized using GraphPad Prism.

B1: IgG1-CD134-11D4 (antibody)
heavy: EVQLVESGGGLVQPGGSLRLSCAASGFTFSSYSMNWVRQAPGKGLEWVSYISSSSSTIDYADSVKGRFTISRDNAKNSLYLQMNSLRDEDTAVYYCARESGWYLFDYWGQGTLVTVSSASTKGPSVFPLAPSSKSTSGGTAALGCLVKDYFPEPVTVSWNSGALTSGVHTFPAVLQSSGLYSLSSVVTVPSSSLGTQTYICNVNHKPSNTKVDKRV[letters of human IgG1 Fc not shown]
light: [letters of about 200 residues not shown]
notes: human IgG1, wild-type Fc
For the molecule B1, the binding result in assay [1] was “no binding (tested: 50 µg/mL)”. The “EC50 (read off the curve)” value in assay [2] was around 0.06 µg/mL.
